From PubChem BioAssay AID995 (National Center for Advancing Translational Sciences (NCATS), 2007)
Where “and” joins values, the source holds several entries; their conditions need not be identical. Equal entries are not always repeated. Hit rate of the full screen: of about 72,000 compounds, about 710 (0.99%) were called active. Inconclusive means that the source gave no clear call. Such entries were picked first, then a sample of the others. Calls follow the shape of the dose curve; as a rule, active = well fitted inhibition curve with a large enough effect; inconclusive = small, poorly fitted or top-dose-only effect; inactive = no such curve, though single readings can be large or run the other way. Where the call is inconclusive, the potency comes from a doubtful curve fit.

Test: qHTS Assay for Inhibitors of the ERK Signaling Pathway using a Homogeneous Screening Assay; also: nearly all actives have a fitted effect of over 55% in size
Settings: HEK293-V1b, vasopressin-stimulated pERK AlphaScreen; activity, negative = inhibition: at 57.5 µM (top of the series) unless noted
Procedure, shortened: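 HEK293 cells stably expressing V1b receptor, seeded overnight in 1% FBS, were treated with compounds for 30 min at 37C, then stimulated 5 min with 25 nM vasopressin; phospho-ERK read by AlphaScreen SureFire after lysis.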
% is scaled to controls: 0 for no effect and ±100 for the full control effect; potency is read from the fitted curve at half-maximal effect; tags tell the direction and shape of the fitted curve.

SMILES	Potency	activity, negative = inhibition
Cc1nc(C2CC(=O)OC23CCCCC3)cs1 (stereo not drawn)	inconclusive: 39.8 µM [inhibitor, single point]	
CCNc1nc(N2CCCCC2)nc(-n2nnc(C(=O)OCC)c2C)n1	inconclusive: 15.8 µM [inhibitor, partial curve]	
CCOc1ccccc1OCCCCCc1c(C)n[nH]c1C	inconclusive: 0.794 µM [inhibitor, single point]	
CCCCCCn1c(N2CCN(c3ccccc3)CC2)nc2c1c(=O)n(C)c(=O)n2C	inconclusive: 31.6 µM [inhibitor, single point]	
C=CCNC(=O)c1c(N)n(-c2ccc3c(c2)OCO3)c2nc3ccccc3nc12	inactive	
O=C(Cc1cccs1)N1CCN(c2nc(-c3ccc(Cl)cc3)cs2)CC1	inconclusive: 39.8 µM [inhibitor, single point]	
N#C/C(=C\c1ccc(O)c(O)c1)C(=O)NCCc1ccccc1	inconclusive: 25.1 µM [inhibitor, single point]	
Fc1cccc2sc(Nc3nnc(-c4ccccc4)o3)nc12	inactive	
Cc1noc(C)c1CSCC(=O)OCC(=O)N1CC(=O)Nc2ccccc21	inconclusive: 6.31 µM [inhibitor, single point]	
CC12CCCCC1c1ccccc1C(=NCC(=O)O)N2 (stereo not drawn)	inconclusive: 20 µM [inhibitor, single point]	
c1cc2c3c(cccc3c1)NC1(CCCCCC1)N2	inactive	
Cc1ccc(C(=O)N2CCN(C(=O)CN3CCOCC3)C2)cc1	inconclusive: 0.316 µM [inhibitor, full curve, poor fit]	
CO[C@@H]1C=CO[C@]2(C)Oc3c(C)c(O)c4c(O)c(c(C=NN5CCN(C)CC5)c(O)c4c3C2=O)NC(=O)C(C)=CC=C[C@H](C)[C@H](O)[C@H](C)[C@H](O)[C@H](C)[C@H](OC(C)=O)[C@H]1C		inconclusive: -34.5% [inhibitor] [at 25.7 µM]
CCOC(=O)c1ccc(NS(=O)(=O)c2ccc3[nH]c(=O)[nH]c3c2)cc1	inconclusive: 0.199 µM [inhibitor, full curve, poor fit]	
O=C1C2C3C=CC(CO)(O3)C2C(=O)N1c1ccccc1-c1ccccc1 (stereo not drawn)	inconclusive: 20 µM [inhibitor, single point]	
CC1C2CC(CC1(C)C)N(C(=O)Nc1ccc3nccnc3c1)C2 (stereo not drawn)	inconclusive: 39.8 µM [inhibitor, single point]	
CCN(CC)c1cccc(OC2=NS(=O)(=O)c3ccccc32)c1	inactive	
CCOc1cccc(/C(O)=C2/C(=O)C(=O)N(CCN3CCOCC3)C2c2cccnc2)c1 (stereo not drawn)	inconclusive: 0.0079 µM [inhibitor, full curve, poor fit]	
COc1cc(CNc2ccc(C)c(C)c2)cc(OC)c1OC	active: 39.8 µM	
CCn1c(=O)cc(SCC(=O)NCc2ccccn2)c2ccccc21	inactive	
CC(C)CCCC(C)C1CCC2C3C(=O)C=C4CC(O)CC[C@@]4(C)C3CC[C@@]12C (stereo partly drawn)	inactive	
O=c1cc(-c2ccccc2)oc2cc(O)c(O)c(O)c12	inactive	
Cc1cccc(N2CCN(C(=O)c3cn(C)c(=O)c4c3c3ccccc3n4C)CC2)c1C	active: 20 µM	

SMILES	Potency	activity, negative = inhibition
O=C(COC(=O)c1cc(S(=O)(=O)N2CCOCC2)cs1)c1ccccc1	inactive	
Cc1c(NC(=O)CSc2nnc(-c3ccco3)n2-c2ccccc2)c(=O)n(-c2ccccc2)n1C	inconclusive: 1.26 µM [inhibitor, partial curve, poor fit]	
c1ccc(-c2noc(-c3ccc4ccccc4c3)n2)cc1	inactive	
CN(C)c1ncc2nc(-c3ccc(F)cc3)c(=O)n(C3CC3)c2n1	inactive	
CCOC(=O)C1CCCN(C(=O)c2cn(C)c(=O)c3cc(OC)c(OC)cc23)C1 (stereo not drawn)	inconclusive: 0.794 µM [inhibitor, full curve, poor fit]	
CCOC(=O)OCC1OC(C#Cc2ccc(C)cc2C)C=CC1OC(=O)OCC (stereo not drawn)		inactive: 5.15% [at 11.5 µM]
CCN1C(=O)[C@H]2[C@H]3[C@H](O)[C@H](O)C/C(=N/O[C@@H](C)c4cn([C@H](CO)Cc5ccccc5)nn4)[C@@H]3CC[C@@H]2C1=O		inactive: -0.295% [at 11.5 µM] and inactive: 8.25% [at 11.5 µM]
CO[C@H]1COC(=O)[C@H](C)NC(=O)C/C=C\[C@@H](C)[C@H](OC)COC(=O)C/C=C\[C@@H]1C		inactive: 5.38% [at 11.5 µM]
CN(Cc1ccco1)c1ncnc2ccc(-c3ccc4c(c3)OCO4)cc12	inconclusive: 31.6 µM [inhibitor, single point]	
Cc1cc(N2CCN(C(c3ccccc3)c3ccc(Cl)cc3)CC2)n2ncnc2n1 (stereo not drawn)	inconclusive: 39.8 µM [inhibitor, single point]	
Cc1cccc2cc(CN(CCCO)C(=O)Nc3ccc(Cl)cc3)c(=O)[nH]c12	inconclusive: 25.1 µM [inhibitor, single point]	
O=C1c2ccc(Oc3ccc4c(c3)C(=O)N(CCCCO)C4=O)cc2C(=O)N1CCCCO	active: 20 µM	
CCCNC(=O)c1cc(-c2ccc(OC)cc2)on1	inactive	
CSc1nnc2n(-c3ccccc3)c(=O)c3c4c(sc3n12)CCC4	inactive	
CCOCC(=O)Nc1nc2ccc(OCC)cc2s1	inconclusive: 39.8 µM [inhibitor, single point]	
O=C(CN(Cc1ccco1)C(=O)CNS(=O)(=O)c1ccc(F)cc1)NCCc1ccccc1	inactive	
COc1ccc(-n2c(COc3ccccc3)nnc2SCc2ccc(C#N)cc2)cc1	inactive	
COCC(=O)Nc1ccc(Nc2ccccc2)cc1	inconclusive: 12.6 µM [inhibitor, partial curve]	
Cc1ccc(-n2ncc(C#N)c2/N=C/N2CCN(C)CC2)cc1	inconclusive: 2.51 µM [inhibitor, partial curve]	
O=C(NCc1ccco1)c1cc(-c2ccccn2)nc2ccccc12	inconclusive: 20 µM [inhibitor, partial curve]	
CS(=O)(=O)c1nc(-c2cccs2)cc(C(F)(F)F)n1	inconclusive: 39.8 µM [inhibitor, single point]	
CC(=O)OC(C(=O)NCS(=O)(=O)c1ccc(C)cc1)c1cccnc1 (stereo not drawn)	inconclusive: 6.31 µM [inhibitor, partial curve]	
O=C(Nc1cccs1)Nc1ccccc1Cl	inconclusive: 31.6 µM [inhibitor, single point]	

SMILES	Potency	activity, negative = inhibition
Cc1cc(/C=C\c2ccc3cc(N(C)C)ccc3[n+]2C)c(C)n1-c1ccccc1	inconclusive: 12.6 µM [inhibitor, partial curve]	
COc1ccc2oc(-c3ccccc3)c(C(N)=O)c2c1	inactive	
O=c1c(O)c(-c2ccccc2)oc2cccc(O)c12	inconclusive: 39.8 µM [inhibitor, single point]	
N=c1c2c(-c3ccccc3)c(-c3ccccc3)n(Cc3ccco3)c2ncn1Cc1ccco1	inconclusive: 39.8 µM [inhibitor, single point]	
CC1C=CCC2C(=O)N(c3cccc(C(=O)N4CCN(c5ccc(F)cc5)CC4)c3)C(=O)C12 (stereo not drawn)	inconclusive: 20 µM [inhibitor, partial curve, poor fit]	
O=C(COc1ccc(-n2cnnn2)cc1)NCCc1ccc(F)cc1	inactive	
CC(C)Cn1c(N)c(C(=O)COC(=O)C2CCCCC2)c(=O)n(C)c1=O	inconclusive: 2 µM [inhibitor, full curve]	
Cc1cccc(-n2ccnc2SCC(=O)Nc2nccs2)c1C	inconclusive: 39.8 µM [inhibitor, single point]	
COc1ccc(C(=O)N2CCC3(CC2)CN(c2ccccc2)C3)cc1	inconclusive: 15.8 µM [inhibitor, partial curve]	
COC(=O)c1ccc(Oc2cc(C)nc(-n3nc(C)cc3C)n2)cc1	inconclusive: 10 µM [inhibitor, partial curve]	
COc1cc(C2c3c(-c4cc(Cl)c(C)cc4O)n[nH]c3C(=O)N2Cc2cccnc2)ccc1O (stereo not drawn)	inconclusive: 15.8 µM [inhibitor, single point]	
COc1ccc(O)c(-c2cc(-c3cccc(Br)c3)n[nH]2)c1	inconclusive: 39.8 µM [inhibitor, single point]	
O=C(c1cccc(F)c1)N1CCC2(CC1)CN(c1cccc(-c3ccccc3)c1)C2	inconclusive: 1.26 µM [inhibitor, full curve]	
CCOC(=O)c1ccccc1N1C(=O)CSC1=S	inconclusive: 15.8 µM [inhibitor, partial curve]	
O=C(CSc1nnc(C2CCCCC2)n1Cc1ccccc1)NCc1ccco1	inactive	
O=C(c1ncn[nH]1)N1CCN(c2nc(-c3ccccc3)cs2)CC1	inconclusive: 15.8 µM [inhibitor, partial curve]	
CC(=O)N1CCN(c2ccc(NCc3ccccc3)cc2)CC1	inconclusive: 31.6 µM [inhibitor, single point]	
Cc1cccc(N2CCCn3c2nc2c3c(=O)n(CCN3CCOCC3)c(=O)n2C)c1	inconclusive: 15.8 µM [inhibitor, partial curve]	
CCc1nnc(NC(=O)c2ccc(-c3cccc(C(F)(F)F)c3)o2)s1	inactive	
O=c1cnnc(SCCc2ccccc2)[nH]1	inconclusive: 25.1 µM [inhibitor, partial curve]	
CNC(=O)Oc1ccc2c(c1)[C@@]1(C)CCN(C)C1N2C (stereo partly drawn)	inactive	
c1ccc(C2=NN[C@@H]3c4ccccc4-c4ccccc4N3C2)cc1		inconclusive: -31.4% [inhibitor] [at 11.5 µM]
